{
  "source": "paper PMC9911399",
  "about": "“Two distinct binding modes provide the RNA-binding protein RbFox with extraordinary sequence specificity”",
  "binders": {"B1": {"name": "GUCCUUC (DNA:RNA)", "RNA": "GGGAGACCGGAAUUCAGAUUGUCCGUCCUUCUUAAAUCCCGUCGUAGCCACCA", "DNA 1": "CAATCTGAATTCCGGTCTCCC", "DNA 2": "TGGTGGCTACGACGGGATT"}, "B2": {"name": "GAUACCA (DNA:RNA)", "RNA": "B1 RNA with U26A, C27U, C28A, U29C, U30C, C31A", "DNA 1": "CAATCTGAATTCCGGTCTCCC", "DNA 2": "TGGTGGCTACGACGGGATT"}, "B3": {"name": "CUCCGGC (DNA:RNA)", "RNA": "B1 RNA with G25C, U29G, U30G", "DNA 1": "CAATCTGAATTCCGGTCTCCC", "DNA 2": "TGGTGGCTACGACGGGATT"}, "B4": {"name": "CUAUUGG (DNA:RNA)", "RNA": "B1 RNA with G25C, C27A, C28U, U30G, C31G", "DNA 1": "CAATCTGAATTCCGGTCTCCC", "DNA 2": "TGGTGGCTACGACGGGATT"}, "B5": {"name": "ACGGGCA (DNA:RNA)", "RNA": "GGGAGACCGGAAUUCAGAUUGUCCACGGGCAUUAAAUCCCGUCGUAGCCACCA", "DNA 1": "CAATCTGAATTCCGGTCTCCC", "DNA 2": "TGGTGGCTACGACGGGATT"}, "B6": {"name": "AAAGGAG (DNA:RNA)", "RNA": "B5 RNA with C26A, G27A, C30A, A31G", "DNA 1": "CAATCTGAATTCCGGTCTCCC", "DNA 2": "TGGTGGCTACGACGGGATT"}, "B7": {"name": "CUAACAG (DNA:RNA)", "RNA": "B1 RNA with G25C, C27A, C28A, U29C, U30A, C31G", "DNA 1": "CAATCTGAATTCCGGTCTCCC", "DNA 2": "TGGTGGCTACGACGGGATT"}, "B8": {"name": "AUAAUGA (DNA:RNA)", "RNA": "B5 RNA with C26U, G27A, G28A, G29U, C30G", "DNA 1": "CAATCTGAATTCCGGTCTCCC", "DNA 2": "TGGTGGCTACGACGGGATT"}, "B9": {"name": "AGAUGUG (DNA:RNA)", "RNA": "B5 RNA with C26G, G27A, G28U, C30U, A31G", "DNA 1": "CAATCTGAATTCCGGTCTCCC", "DNA 2": "TGGTGGCTACGACGGGATT"}, "B10": {"name": "UCUUCAC (DNA:RNA)", "RNA": "B5 RNA with A25U, G27U, G28U, G29C, C30A, A31C", "DNA 1": "CAATCTGAATTCCGGTCTCCC", "DNA 2": "TGGTGGCTACGACGGGATT"}, "B11": {"name": "AACUGCA (DNA:RNA)", "RNA": "B5 RNA with C26A, G27C, G28U", "DNA 1": "CAATCTGAATTCCGGTCTCCC", "DNA 2": "TGGTGGCTACGACGGGATT"}, "B12": {"name": "GAACAUA (DNA:RNA)", "RNA": "B1 RNA with U26A, C27A, U29A, C31A", "DNA 1": "CAATCTGAATTCCGGTCTCCC", "DNA 2": "TGGTGGCTACGACGGGATT"}, "B13": {"name": "ACUAUGA (DNA:RNA)", "RNA": "B5 RNA with G27U, G28A, G29U, C30G", "DNA 1": "CAATCTGAATTCCGGTCTCCC", "DNA 2": "TGGTGGCTACGACGGGATT"}, "B14": {"name": "UUCAUUC (DNA:RNA)", "RNA": "B1 RNA with G25U, C28A", "DNA 1": "CAATCTGAATTCCGGTCTCCC", "DNA 2": "TGGTGGCTACGACGGGATT"}, "B15": {"name": "CUGGUUG (DNA:RNA)", "RNA": "B1 RNA with G25C, C27G, C28G, C31G", "DNA 1": "CAATCTGAATTCCGGTCTCCC", "DNA 2": "TGGTGGCTACGACGGGATT"}, "B16": {"name": "CUGCCUA (DNA:RNA)", "RNA": "B1 RNA with G25C, C27G, U29C, C31A", "DNA 1": "CAATCTGAATTCCGGTCTCCC", "DNA 2": "TGGTGGCTACGACGGGATT"}, "B17": {"name": "UUAUUCC (DNA:RNA)", "RNA": "B1 RNA with G25U, C27A, C28U, U30C", "DNA 1": "CAATCTGAATTCCGGTCTCCC", "DNA 2": "TGGTGGCTACGACGGGATT"}, "B18": {"name": "AGUCAAA (DNA:RNA)", "RNA": "B5 RNA with C26G, G27U, G28C, G29A, C30A", "DNA 1": "CAATCTGAATTCCGGTCTCCC", "DNA 2": "TGGTGGCTACGACGGGATT"}, "B19": {"name": "UGUAGUA (DNA:RNA)", "RNA": "B5 RNA with A25U, C26G, G27U, G28A, C30U", "DNA 1": "CAATCTGAATTCCGGTCTCCC", "DNA 2": "TGGTGGCTACGACGGGATT"}, "B20": {"name": "AGGUAAA (DNA:RNA)", "RNA": "B5 RNA with C26G, G28U, G29A, C30A", "DNA 1": "CAATCTGAATTCCGGTCTCCC", "DNA 2": "TGGTGGCTACGACGGGATT"}, "B21": {"name": "AGGUCGG (DNA:RNA)", "RNA": "B5 RNA with C26G, G28U, G29C, C30G, A31G", "DNA 1": "CAATCTGAATTCCGGTCTCCC", "DNA 2": "TGGTGGCTACGACGGGATT"}, "B22": {"name": "AGGGUUU (DNA:RNA)", "RNA": "B5 RNA with C26G, G29U, C30U, A31U", "DNA 1": "CAATCTGAATTCCGGTCTCCC", "DNA 2": "TGGTGGCTACGACGGGATT"}, "B23": {"name": "AAAAUCG (DNA:RNA)", "RNA": "B5 RNA with C26A, G27A, G28A, G29U, A31G", "DNA 1": "CAATCTGAATTCCGGTCTCCC", "DNA 2": "TGGTGGCTACGACGGGATT"}, "B24": {"name": "GAACCGC (DNA:RNA)", "RNA": "B1 RNA with U26A, C27A, U29C, U30G", "DNA 1": "CAATCTGAATTCCGGTCTCCC", "DNA 2": "TGGTGGCTACGACGGGATT"}, "B25": {"name": "UCCGGAG (DNA:RNA)", "RNA": "B5 RNA with A25U, G27C, C30A, A31G", "DNA 1": "CAATCTGAATTCCGGTCTCCC", "DNA 2": "TGGTGGCTACGACGGGATT"}, "B26": {"name": "CAGCAUU (DNA:RNA)", "RNA": "B1 RNA with G25C, U26A, C27G, U29A, C31U", "DNA 1": "CAATCTGAATTCCGGTCTCCC", "DNA 2": "TGGTGGCTACGACGGGATT"}, "B27": {"name": "ACUUUUC (DNA:RNA)", "RNA": "B1 RNA with G25A, U26C, C27U, C28U", "DNA 1": "CAATCTGAATTCCGGTCTCCC", "DNA 2": "TGGTGGCTACGACGGGATT"}, "B28": {"name": "GAGUUGC (DNA:RNA)", "RNA": "B1 RNA with U26A, C27G, C28U, U30G", "DNA 1": "CAATCTGAATTCCGGTCTCCC", "DNA 2": "TGGTGGCTACGACGGGATT"}, "B29": {"name": "GGCCGUG (DNA:RNA)", "RNA": "B1 RNA with U26G, U29G, C31G", "DNA 1": "CAATCTGAATTCCGGTCTCCC", "DNA 2": "TGGTGGCTACGACGGGATT"}, "B30": {"name": "GAAACGA (DNA:RNA)", "RNA": "B5 RNA with A25G, C26A, G27A, G28A, G29C, C30G", "DNA 1": "CAATCTGAATTCCGGTCTCCC", "DNA 2": "TGGTGGCTACGACGGGATT"}, "B31": {"name": "UGUCAUC (DNA:RNA)", "RNA": "B1 RNA with G25U, U26G, C27U, U29A", "DNA 1": "CAATCTGAATTCCGGTCTCCC", "DNA 2": "TGGTGGCTACGACGGGATT"}},
  "note": "Residue numbers refer to the chain shown, from its start. The list shows a part of the results.",
  "data": [
    {"target": "T1, RBFOX1 RRM (Homo sapiens, UniProt Q9NWB1 109-208)", "T1 sequence": "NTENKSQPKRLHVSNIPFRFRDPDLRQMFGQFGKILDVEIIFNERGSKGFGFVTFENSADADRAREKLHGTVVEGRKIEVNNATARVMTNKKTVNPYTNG", "assay": "EMSA; HiTS-Eq, 1 nM pool, 10 min; buffer printed only for the single-RNA assays: 10 mM Tris pH 7.5, 150 mM NaCl, 3.4 mM EDTA, 0.001% NP-40, 30 C", "conditions": "tags: His6 N-terminal (pET28a); label: 5' 32P", "how_it_was_run": "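Purified RbFox RRM (wild type or mutant) was equilibrated for 10 min in 50 µL with 1 nM of a 5′-radiolabelled pool of RNA with 7 randomized nucleotides, its flanks annealed to DNA oligonucleotides, across increasing protein concentrations. Free RNA was separated by 8% native PAGE, excised, reverse-transcribed, PCR-barcoded and sequenced on an Illumina HiSeq 2500. Relative association constants came from read-count changes of each variant against the control reaction, normalised to the cognate motif.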", "values": [
      {"binder": "B1", "binding signal": "0.0133 KA relative to UGCAUGU"},
      {"binder": "B2", "binding signal": "0.0027 KA relative to UGCAUGU"},
      {"binder": "B3", "binding signal": "0.00865 KA relative to UGCAUGU"},
      {"binder": "B4", "binding signal": "0.0101 KA relative to UGCAUGU"},
      {"binder": "B5", "binding signal": "0.007 KA relative to UGCAUGU"},
      {"binder": "B6", "binding signal": "0.00703 KA relative to UGCAUGU"},
      {"binder": "B7", "binding signal": "0.00709 KA relative to UGCAUGU"},
      {"binder": "B8", "binding signal": "0.00664 KA relative to UGCAUGU"},
      {"binder": "B9", "binding signal": "0.0146 KA relative to UGCAUGU"},
      {"binder": "B10", "binding signal": "0.0046 KA relative to UGCAUGU"},
      {"binder": "B11", "binding signal": "0.0126 KA relative to UGCAUGU"},
      {"binder": "B12", "binding signal": "0.00334 KA relative to UGCAUGU"},
      {"binder": "B13", "binding signal": "0.00624 KA relative to UGCAUGU"},
      {"binder": "B14", "binding signal": "0.00952 KA relative to UGCAUGU"},
      {"binder": "B15", "binding signal": "0.0304 KA relative to UGCAUGU"},
      {"binder": "B16", "binding signal": "0.0113 KA relative to UGCAUGU"},
      {"binder": "B17", "binding signal": "0.00377 KA relative to UGCAUGU"},
      {"binder": "B18", "binding signal": "0.000317 KA relative to UGCAUGU"},
      {"binder": "B19", "binding signal": "0.015 KA relative to UGCAUGU"},
      {"binder": "B20", "binding signal": "0.00137 KA relative to UGCAUGU"},
      {"binder": "B21", "binding signal": "0.0239 KA relative to UGCAUGU"},
      {"binder": "B22", "binding signal": "0.0224 KA relative to UGCAUGU"},
      {"binder": "B23", "binding signal": "0.00246 KA relative to UGCAUGU"},
      {"binder": "B24", "binding signal": "0.00516 KA relative to UGCAUGU"},
      {"binder": "B25", "binding signal": "0.00511 KA relative to UGCAUGU"},
      {"binder": "B26", "binding signal": "0.00507 KA relative to UGCAUGU"},
      {"binder": "B27", "binding signal": "0.00801 KA relative to UGCAUGU"},
      {"binder": "B28", "binding signal": "0.018 KA relative to UGCAUGU"},
      {"binder": "B29", "binding signal": "0.0101 KA relative to UGCAUGU"},
      {"binder": "B30", "binding signal": "0.00773 KA relative to UGCAUGU"},
      {"binder": "B31", "binding signal": "0.0135 KA relative to UGCAUGU"}
    ]}
  ]
}
